Measured values taken from article PMC4336329 (PLoS ONE, 2015).
In all, about 310,000 compounds went through this assay and about 2,200 (0.71%) showed an effect of 50% or more. Effects have a minus sign here. The list shows a part of the results.

molecular target: human ether-à-go-go-related gene (hERG) potassium channel (human, UniProt Q12809); assay: primary screen, population patch clamp on CHO cells stably expressing hERG
Sequence (Q12809 whole entry, looked up): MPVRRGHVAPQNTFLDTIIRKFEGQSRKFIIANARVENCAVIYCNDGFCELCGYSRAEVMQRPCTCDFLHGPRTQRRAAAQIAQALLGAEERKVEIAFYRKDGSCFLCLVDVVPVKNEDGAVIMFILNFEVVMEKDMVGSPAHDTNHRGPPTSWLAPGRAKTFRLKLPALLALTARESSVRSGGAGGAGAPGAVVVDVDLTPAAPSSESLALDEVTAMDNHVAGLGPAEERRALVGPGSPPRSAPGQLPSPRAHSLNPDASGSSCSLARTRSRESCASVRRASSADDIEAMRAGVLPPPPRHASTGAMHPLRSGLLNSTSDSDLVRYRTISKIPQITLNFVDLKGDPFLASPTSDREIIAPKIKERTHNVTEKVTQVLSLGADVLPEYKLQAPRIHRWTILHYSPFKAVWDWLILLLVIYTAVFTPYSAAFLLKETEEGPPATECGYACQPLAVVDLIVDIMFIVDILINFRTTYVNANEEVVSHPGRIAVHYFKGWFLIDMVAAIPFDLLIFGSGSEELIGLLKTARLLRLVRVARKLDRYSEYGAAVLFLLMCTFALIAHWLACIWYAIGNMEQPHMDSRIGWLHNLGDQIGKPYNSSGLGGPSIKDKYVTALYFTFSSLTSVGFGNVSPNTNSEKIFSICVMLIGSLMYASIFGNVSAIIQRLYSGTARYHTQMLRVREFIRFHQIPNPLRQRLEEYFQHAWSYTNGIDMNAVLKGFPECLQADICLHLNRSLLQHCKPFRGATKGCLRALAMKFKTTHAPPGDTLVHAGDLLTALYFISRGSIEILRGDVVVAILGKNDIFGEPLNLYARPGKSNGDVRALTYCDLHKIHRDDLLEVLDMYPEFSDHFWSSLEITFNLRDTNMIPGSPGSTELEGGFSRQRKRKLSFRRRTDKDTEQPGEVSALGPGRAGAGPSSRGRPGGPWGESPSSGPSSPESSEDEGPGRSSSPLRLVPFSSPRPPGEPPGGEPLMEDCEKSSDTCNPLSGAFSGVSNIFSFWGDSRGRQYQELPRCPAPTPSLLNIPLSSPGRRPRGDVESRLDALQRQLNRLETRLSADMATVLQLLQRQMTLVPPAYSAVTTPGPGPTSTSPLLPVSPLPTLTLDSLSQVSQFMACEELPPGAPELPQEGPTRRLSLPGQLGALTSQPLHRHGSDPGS

| Structure (SMILES) | hERG current change (%, negative = inhibition) at 1uM [%] |
| --- | --- |
| CC(C)(C)Cc1nnc(NC(=O)Cc2cccs2)s1 | 15.6 |
| O=C(COC(=O)/C=C/C(=O)N1CCN(c2ccccc2)CC1)NCc1ccc(F)cc1 | 3.08 |
| CCc1cc2c3c(c1)/C(=C1/SC(N)=NC1=O)C(=O)N3C(C)(C)C=C2C | 10.2 |
| O=C(CCC(=O)N(c1ccc(F)cc1)C(C(=O)NC1CCCC1)c1ccncc1)Nc1cccnc1 (stereo not drawn) | 0.818 |
| O=C(Oc1ccc(N(C(=O)c2ccncc2)S(=O)(=O)c2ccc(Cl)cc2)cc1)c1ccncc1 | 6.87 |
| c1ccc(N2CC3CCc4ccccc4C3=N2)cc1 (stereo not drawn) | 10.5 |
| O=C1CC(c2ccccc2)CN1C(=O)c1ccccc1 (stereo not drawn) | 8.7 |
| COc1cccc(N2CCN(C(=O)c3cccn4c(=O)c5c(C)c(C)sc5nc34)CC2)c1 | -0.0662 |
| N#Cc1cc(S(=O)(=O)c2ccccc2)c(N)[nH]c1=O | 19.9 |
| Cc1csc(NC(=O)CSc2nnc(-c3ccoc3C)o2)n1 | 11 |
| O=C(Nc1cc(N2CCOCC2)ncn1)NC1(C(F)(F)F)Oc2ccccc2O1 | 15.5 |
| Cc1cc(S(=O)(=O)N2CCOCC2)ccc1OCC(=O)Nc1cccc(F)c1 | -11.5 |
| CCOC(=O)C1=C(CNCc2ccccc2Cl)NC(=O)NC1c1ccc2c(c1)OCO2 (stereo not drawn) | 10.5 |
| CSc1ccc(/C=N/Nc2nc(C)cc(C)n2)cc1 | -0.532 |
| O=C(CSCc1ccccc1Br)Nc1ccccc1 | 11.1 |
| Fc1ccc(OCCn2cnc(Cl)c2Cl)cc1 | 9.18 |
| Cn1c(C(O)c2ccccc2)nc(Cl)c1Cl (stereo not drawn) | 12.8 |
| Cc1ccc(NCN2C(=O)C3CC=CCC3C2=O)cc1 (stereo not drawn) | 7.94 |
| O=C(Nc1ccc(C(F)(F)F)cc1)c1ccc(NC(=O)C2CCCO2)cc1 (stereo not drawn) | 13.5 |
| Br.N=c1n(CCN2CCOCC2)c2ccccc2n1CC(=O)c1cccc([N+](=O)[O-])c1 | -2.15 |
| O=C1CC(Sc2nnc(-c3ccccc3)o2)C(=O)N1c1ccccc1 (stereo not drawn) | 8.63 |
| O=C(/C=C/c1cc([N+](=O)[O-])ccc1OC(F)F)NCc1ccc(Cl)cc1 | 8.29 |
| CS(=O)(=O)N1CCC(Oc2ccccc2C(=O)NC2CCCCCC2)CC1 | 2.93 |

| Structure (SMILES) | hERG current change (%, negative = inhibition) at 1uM [%] |
| --- | --- |
| O=C(CCN1C(=O)/C(=C/c2ccccc2)SC1=S)NCCc1ccc(O)cc1 | 16.6 |
| Cc1ccc(-c2nnc(SCC(=O)CC(=O)Nc3ccccc3)n2C)cc1 | 1.61 |
| CN(c1ccc(C(=O)NCc2ccccc2)cc1)S(C)(=O)=O | 7.98 |
| Cc1oc(-c2ccccc2)nc1CS(=O)CC(=O)O (stereo not drawn) | 13.8 |
| CCC(C)N1C(=O)/C(=C\c2cc3c4c(c2)CCCN4CCC3)C(=O)NC1=S (stereo not drawn) | 15.4 |
| Cc1ccccc1N(CC(=O)NCCSc1ccccn1)S(=O)(=O)c1ccccc1 | 5.06 |
| CCCC(=O)Nc1ccc2c(c1)nc(CCN1CCN(c3ccccn3)CC1)n2C | 1.68 |
| COc1cc(C2NCC(c3ccc(Cl)cc3Cl)c3c2[nH]c2ccccc32)cc(OC)c1OC.Cl (stereo not drawn) | 5.01 |
| CCOc1ccc(S(=O)(=O)NCCSc2ccccc2)cc1 | 8.71 |
| CN(C)C(=O)CS(=O)(=O)c1ccc(Cl)cc1 | 9.59 |
| CCOC(=O)c1ccc2[nH]c3c(c2c1)CCCC3C(=O)OCC (stereo not drawn) | 2.92 |
| Nc1sc2c(c1C(=O)NC1CCS(=O)(=O)C1)CCC2 (stereo not drawn) | 11.3 |
| NC(=O)c1c[nH]c2ccccc12 | 11.8 |
| O=C(O)C1CC=CCC1C(=O)Nc1ccccc1C(=O)N1CCN(c2ccccc2)CC1 (stereo not drawn) | -6.17 |
| COCCNC(=O)c1cc2c(=O)n3cccc(C)c3nc2n(Cc2ccncc2)c1=N | -31.5 |
| O=C(CSC(=S)N1CCCC1)NCCc1ccccc1 | 3.02 |
| CCC(CO)Nc1ccc(-c2n[nH]c(=O)c3ccccc23)cc1[N+](=O)[O-] (stereo not drawn) | -0.384 |
| O=C(COc1ccccc1)c1cn(CC(=O)N2CCOCC2)c2ccccc12 | 6.62 |
| COc1ccc(-c2ccc3sc4ccccc4c(=O)c3c2)cn1 | 1.08 |
| O=C(Nc1ccc(C(=O)O)cc1)Nc1ccc(F)cc1F | 8.79 |
| CCOC(=O)Cn1c(=NC(=O)C2COc3ccccc3O2)sc2cc(S(N)(=O)=O)ccc21 (stereo not drawn) | 8.74 |
| CCN(C(=O)c1cc2c(s1)-c1ccccc1OC2)c1cc(OC)ccc1OC | 10.1 |
